Reference: ChEMBL document CHEMBL4888484, “Replenishing the malaria drug discovery pipeline: Screening and hit evaluation of the MMV Hit Generation Library 1 (HGL1) against asexual blood stage Plasmodium falciparum ,using a nano luciferase reporter read-out” (2022)
Hit rate of the full screen: of about 150,000 compounds, about 540 (0.36%) showed an effect of 50% or more. The list shows a part of the results.

tested on: Plasmodium falciparum; assay: Primary screen in NF54 nanoGlo assay, in single point, at 2uM, 72h; a lower Z score goes with more inhibition; format: functional, Erythrocyte; conditions: timepoint 72 hour

| Compound | % Inhibition [%] | Z score |
| --- | --- | --- |
| C[C@H]1CN(S(=O)(=O)N(CCc2cccc(F)c2)C2CC2)CCO1 | -3 | 0.26 |
| CC[C@@H](C(=O)Nc1c(C(=O)Nc2ccc3c(c2)OCO3)oc2ccccc12)c1ccccc1 | -6 | 1.2 |
| C[C@@H](c1ccccn1)N(C)c1ccc(C#N)nc1 | -9 | 1.11 |
| Cc1[nH]nc(CCC(=O)N2CCC[C@@]3(CCC(=O)N(CCC(C)C)C3)C2)c1C | 6 | -0.78 |
| O=c1ccc(-c2ccccc2)nn1CN(C1CCCCC1)C1CC1 | -1 | 0.1 |
| C[C@H](O)c1ccc(-c2cccc(C(=O)N3CCOC(C)(C)C3)c2)cc1 | -5 | 0.7 |
| CC(C)COC(=O)N1CCC[C@H]1C(=O)NC1CCCCCC1 | -8 | 1.15 |
| Cc1cc(C)nc(NC(=O)N(C)Cc2cscn2)c1 | -18 | 2.08 |
| O=C(Cn1cc(C(=O)Nc2ccsc2)cn1)NC1CCCCC1 | -1 | 0.23 |
| COc1cc(OC)nc(N2C[C@H]3CC[C@@H](C2)N(Cc2c(C)noc2C)C3=O)n1 | -7 | 0.94 |
| CCn1ncnc1COc1cccc2c1[C@@H](O)CC(C)(C)O2 | -4 | 0.46 |
| Cc1ccccc1N1C(=O)c2cc(C(C)C)nn2C[C@@]1(C)C(=O)NC1CCCCCCC1 | -2 | 0.29 |
| CC(C)(C)C(=O)N1CCC(N2CCC[C@H](C(=O)NCc3ccccn3)C2)CC1 | -1 | 0.23 |
| CC(C)COC[C@@H](O)CN(Cc1c(-c2ccccc2)nn(C)c1Oc1ccc(Cl)cc1)CC1CC1 | -8 | 0.84 |
| COCCN1CC[C@H](CN(C)C(=O)CC(=O)Nc2cccc(C)c2)C1 | -5 | 0.48 |
| CCCC(=O)Nc1c(S(=O)(=O)c2ccccc2)c(C)c(C)n1CCC | -11 | 1.42 |
| Cc1noc(-c2ccco2)c1C(=O)NCCOc1ccccc1 | -4 | 0.52 |
| Cc1nccn1C[C@H](C)Cn1c(=O)[nH]c2ccccc2c1=O | -6 | 0.94 |
| O=c1[nH]c(=O)c2nnc(Nc3ccc(Cl)cc3)nc2[nH]1 | -3 | 0.37 |
| CCOC(=O)N1CCC(NCc2cc3ccc(Cl)cc3n(CCOc3ccccc3)c2=O)CC1 | -7 | 1.3 |
| COC1(C)CN(c2ccnc(CO)c2)C1 | -2 | 0.27 |

| Compound | % Inhibition [%] | Z score |
| --- | --- | --- |
| O=S(=O)(Nc1ccc(-c2nc3ccc(Cl)cc3s2)cc1)c1cccs1 | 5 | -0.59 |
| Cc1ccc(-c2csc(NC(=O)c3cnsn3)n2)cc1 | -10 | 2.02 |
| Cc1nonc1CNC(=O)[C@@H]1CCCN1C(=O)C1CCCCC1 | 9 | -1.68 |
| CCCCc1nc(N2CCCN(C(=O)c3cccc(OC)c3)CC2)c2c(C)nn(-c3ccccc3)c2n1 | 2 | -0.16 |
| Cc1oncc1CNC(=O)c1ccccc1CN1CCOCC1 | -2 | 0.25 |
| O=C(N1CCCCCC1)N1CCNCC1 | 8 | -1.33 |
| CC1=C(CCN2CCN(C)[C@@]3(CCNC(=O)CC3)C2)C(C)(C)CCC1 | -14 | 2.25 |
| O=C(Nc1cc(F)c2nc(N3CCOCC3)ccc2c1)C1CCC1 | -11 | 1.68 |
| O=C(CN1CCOCC1)N1CCN(Cc2cccc3cn[nH]c23)CC1 | -5 | 0.44 |
| O=C(CCCC1CCOCC1)N(C1CCC1)C1CCC1 | -13 | 1.98 |
| CCn1cnc2c(N3C4CCC3CC(=O)C4)ncnc21 | 0 | -0.01 |
| Cc1ccnc([C@H]2CCN(C(=O)c3cc(C)nn3C3CCOCC3)C2)c1 | -15 | 2.32 |
| Cc1nc(CNS(=O)(=O)N2CC(C)OC(C)C2)c(C)s1 (stereo not drawn) | 19 | -2.16 |
| Cc1cc(Cl)ccc1NC(=O)C1CCN(S(=O)(=O)c2c(C)[nH]c(C)c2C(=O)N2CCCCC2)CC1 | -9 | 0.86 |
| Cc1[nH]nc(CCC(=O)N2CCC[C@H](C(=O)Cc3ccccc3)C2)c1C | -1 | 0.08 |
| CN(C[C@H](O)c1cccnc1)c1nc(C2CCOCC2)ns1 | -4 | 0.65 |
| Cc1[nH]ncc1C(=O)NC(C)(C)C(=O)NCC1CCCCC1 | -7 | 1.43 |
| CCNC(=O)c1coc(CN2C(=O)COc3ccc(C(=O)COc4cccc(Cl)c4)cc32)n1 | -5 | 0.8 |
| COC(=O)c1ccc(NC(=O)C2CN(C(=O)c3cnccn3)C2)cc1 | -7 | 1.15 |
| O=C(CCC1CCN(S(=O)(=O)c2cccc(F)c2)CC1)NCCN1CCCCC1 | -9 | 1.24 |
| CC1CN(c2cccc(C#N)n2)CC2(CCCOC2)O1 (stereo not drawn) | -20 | 3.14 |

| Compound | % Inhibition [%] | Z score |
| --- | --- | --- |
| CCN(CCC#N)Cn1ncc2cc(C(=O)OC)ccc21 | -7 | 0.98 |
| CCCN(Cc1nc(C2CC2)no1)CC1CC1 | -7 | 1.02 |
| CC(C)[C@H](NC(=O)c1ccco1)C(=O)N1CCN(C)c2ccccc21 | -2 | 0.19 |
| O=C(Nc1ccsc1-c1nnc(C2CC2)o1)c1cc(F)ccc1F | -9 | 0.95 |
| O=C(CS(=O)(=O)[C@H]1CCc2c(F)cc(F)cc21)Nc1ccccc1Cl | -4 | 0.59 |
| COc1ccccc1NC(=O)c1ncoc1-c1ccco1 | -4 | 0.39 |
| CCOC1CC(NC(C)C(=O)N(C)Cc2cccc(F)c2)C12CCCC2 (stereo not drawn) | 4 | -0.62 |
| CC(C)c1ccc(N2C(=O)CN(Cc3ccccc3Cl)C3CS(=O)(=O)CC32)cc1 (stereo not drawn) | -5 | 0.65 |
| COc1ccc(CN2CCN(C)CC2)cc1NC1CCC(OC)CC1 (stereo not drawn) | -20 | 2.17 |
| CN(C)[C@@H]1C[C@@H](CO)N(Cc2ccccc2OCc2c(F)cccc2Cl)C1 | -6 | 0.7 |
| CC(=O)N1CCC([C@@H]2CN(C(=O)Cc3ccsc3)C[C@H]2CO)CC1 | -2 | 0.22 |
| COCCNC(=O)c1ccc(-c2nc(CN3CCc4ccccc43)c(C)o2)cc1 | -6 | 0.73 |
| CO[C@H]1CCN(C(=O)Nc2cc(C)nn2Cc2cccc(Cl)c2)C1 | 1 | -0.21 |
| Cc1cccc(CC2(N[C@@H]3c4ccccc4C4(CCNCC4)[C@H]3O)CC2)c1 | -13 | 1.25 |
| Cc1cc2cc(C(=O)NCc3nnc(C4CC4)o3)oc2cc1C | 27 | -3.49 |
| CN(CCc1ccccc1)c1cc(C2CC(N)C2)ncn1 (stereo not drawn) | -10 | 1.35 |
| CN1CCC[C@@H]1CCNc1cc(-c2ccncc2)nc2ccnn12 | 3 | -0.41 |
| COCc1ccc(C(=O)N[C@H]2COCC[C@@H]2O)o1 | -15 | 2.34 |
| C#CCN(C)S(=O)(=O)c1cc(C)c(Cl)s1 | -12 | 1.26 |
| CCc1ccnc(C(=O)NC2(c3ncon3)CCC2)c1 | -7 | 1.14 |
| Cc1nc2c(c(NCc3cc(CC(C)C)on3)n1)CNC2 | -1 | 0.25 |

| Compound | % Inhibition [%] | Z score |
| --- | --- | --- |
| CN(CCn1cccn1)C(=O)C1CCN(Cc2ccco2)CC1 | -1 | 0.13 |
| OCCCn1nc(C2(c3ccccc3)CC2)nc1CCc1cccnc1 | -18 | 1.62 |
| O=C(C[C@@H]1Nc2ccccc2NC1=O)Nc1ccc(F)cc1 | 2 | -0.29 |
| CC[C@@H](C(N)=O)N(C(=O)c1cc(O)nc2ccccc12)c1ccccc1 | -16 | 1.35 |
| NC(=NCCc1cccnc1)Nc1cccc(Oc2ccccc2)c1 | 1 | -0.07 |
| COc1ccc([C@H](C)NC(=O)c2nnn3c2c(=O)[nH]c2cc(C)ccc23)cc1 | -3 | 0.62 |
| Cc1nc(NCc2nnc3n2CCCC3)c2sccc2n1 | -12 | 1.53 |
| Cc1cccc(C(=O)N[C@H]2CCN(c3ccccc3)C2=O)c1 | 39 | -5.29 |
| Nc1nc(O)cc(-c2cccc(C(=O)NCCc3nc4c(s3)CCC4)c2)n1 | -14 | 1.26 |
| CO[C@H]1C[C@H](NC(=O)Nc2cc(-n3cccn3)ccc2C)C1 | -14 | 2.56 |
| CC(C)c1nccc(C(=O)NCCc2nc3c(s2)CCC3)n1 | -7 | 1.46 |
| Cc1n[nH]cc1CNC(=O)[C@@H](O)c1ccccc1 | 4 | -0.61 |
| CCO[C@H]1CN(C)C[C@@H]1n1cnc2ccc(OC)cc2c1=O | -2 | 0.45 |
| O=C(NCc1ccc(F)cc1)N1CCCC[C@H]1c1noc(COc2ccc(F)cc2)n1 | -12 | 1.53 |
| Cc1cc(CC(=O)NC2(C)CCCCCC2)no1 | -6 | 0.56 |
| Cc1ccc2ncc(CN(C)[C@@H](C)c3cccnc3)n2c1 | -1 | 0.15 |
| Cc1nc(N2CCOCC2)c2c(C(=O)N3CCN(c4cccc(Cl)c4)CC3)c(C)oc2n1 | -3 | 0.6 |
| Nc1c(Cl)cc(Cc2noc([C@H]3CCCOC3)n2)cc1Cl | -5 | 0.63 |
| Cc1ccc([C@H](C)NC(=O)[C@H]2CC[C@@H](O)CC2)cn1 | -2 | 0.37 |
| Cc1c(Br)ccc(F)c1C(=O)N1CCn2ncnc2C1 | 3 | -0.34 |
| Cc1cc(C)n(C)c(=O)c1C(=O)N1C[C@@H]2CC[C@H]1CN(Cc1ccccc1)C2 | 1 | -0.08 |
